Laboratory results as given in patent US20260078099A1, “COMPOUND, PREPARATION METHOD THEREOF, AND LIPID NANOPARTICLE AND PHARMACEUTICAL COMPOSITION” (priority 2023, published 2026).
For part of these data: At least one compound was matched to its structure with a doubt left. Some of these results come from one statement about several compounds together. Some compounds share one range, which may span the group rather than tell each member.

Columns and labels:
[1] = Dose-response study, Luc mRNA intramuscular; assay type: in vivo; conditions: for injection site flux levels: across all doses (0.25, 0.05, 0.01 mg/kg)
Protocol: Samples containing firefly luciferase (Luc) mRNA were administered intramuscularly to evaluate protein expression. […] As the dose decreased, the injection site's expression proportion increased. A26, A47, and B38 maintained injection site flux levels of 0.3-3×10^10 (p/s) across all doses.

[2] = LNP size and PDI by dynamic light scattering; assay type: physicochemical; conditions: mRNA LNP, cationic lipid/DSPC/cholesterol/PEG-lipid 50:10:38.5:1.5
Protocol: (§1) In summary, the cationic lipid described herein, DSPC, cholesterol, and PEG-lipid were dissolved in ethanol at a molar ratio of 50:10:38.5:1.5 and diluted in 10 mM to 50 mM citrate buffer at pH 4 with mRNA. Using a microfluidic device, the lipid ethanol solution was mixed with mRNA aqueous solution at a volume ratio of 1:3 and a total flow rate ranging from 6-30 mL/min, preparing LNPs with a total lipid to mRNA weight ratio of approximately 10:1 to 30:1. Ethanol was removed by dialysis and replaced with PBS. Finally, the lipid nanoparticles were filtered through a 0.22 μm sterile filter.
(§2) The size of lipid nanoparticles was measured by dynamic light scattering using a Malvern Zetasizer Nano ZS (Malvern, UK) with a 90° scattering detection mode. The encapsulation efficiency of lipid nanoparticles was determined using the Quant-it Ribogreen RNA Quantitation Kit (Thermo Fisher Scientific, UK) according to the manufacturer's instructions. The apparent pKa of LNP formulations correlates with the delivery efficiency of nucleic acids by LNPs in vivo. The apparent pKa ranges from approximately 5 to 7. An analysis based on fluorescence from 2-(p-tolylamino)-6-naphthalenesulfonic acid (TNS) was used to determine the apparent pKa of formulations. As described above, LNP formulations containing cationic lipid/DSPC/cholesterol/DMG-PEG (50/10/38.5/1.5 mol %) in PBS were prepared. A 300 μM stock solution of TNS in distilled water was prepared. LNP formulations were diluted to 0.1 mg/mL total lipid in 3 mL of buffer solution containing 50 mM sodium citrate, 50 mM sodium phosphate, 50 mM sodium borate, and 30 mM sodium chloride (pH ranged from 3 to 9). […] S-shaped curve best-fit analysis was applied to the fluorescence data, and the pKa value was measured as the pH value producing half-maximal fluorescence intensity.

[3] = LNP zeta potential; assay type: physicochemical; conditions: mRNA LNP
Text: Nanoparticle compositions can be characterized by various methods. For example, the morphology and size distribution of nanoparticle compositions can be examined using microscopy (e.g., transmission electron microscopy or scanning electron microscopy). The zeta potential can be measured using dynamic light scattering or potentiometric titration. Dynamic light scattering can also be used to determine particle size. Instruments such as the Zetasizer Nano ZS (Malvern Instruments Ltd., Malvern, Worcestershire, UK) can also be used to measure multiple characteristics of nanoparticle compositions, such as particle size, polydispersity index, and zeta potential.
[…]: The zeta potential of the nanoparticle composition can indicate the electrophoretic potential of the composition. For example, zeta potential may describe the surface charge of the nanoparticle composition. Nanoparticle compositions with relatively low positive or negative charges are generally desirable, as materials with higher charges may interact undesirably with cells, tissues, and other components in the body. In some embodiments, the zeta potential of the nanoparticle composition may be about −10 mV to about +20 mV, about −10 mV to about +15 mV, about −10 mV to about +10 mV, about −10 mV to about +5 mV, about −10 mV to about 0 mV, about −10 mV to about −5 mV, about −5 mV to about +20 mV, about −5 mV to about +15 mV, about −5 mV to about +10 mV, about −5 mV to about +5 mV, about −5 mV to about 0 mV, about 0 mV to about +20 mV, about 0 mV to about +15 mV, about 0 mV to about +10 mV, about 0 mV to about +5 mV, about +5 mV to about +20 mV, about +5 mV to about +15 mV, or about +5 mV to about +10 mV.

[4] = LNP encapsulation efficiency (Quant-it Ribogreen); assay type: physicochemical; conditions: mRNA LNP, cationic lipid/DSPC/cholesterol/PEG-lipid 50:10:38.5:1.5
Text: Encapsulation Efficiency: The encapsulation efficiency of a therapeutic and/or prophylactic agent refers to the amount of the therapeutic and/or prophylactic agent encapsulated within or otherwise associated with the nanoparticle composition relative to the initial amount provided during preparation. Encapsulation efficiency is desirably high (such as close to 100%). Encapsulation efficiency can be measured, for example, by comparing the amount of therapeutic and/or prophylactic agent in a solution containing the nanoparticle composition before and after disruption of the nanoparticle composition using one or more organic solvents or detergents. Fluorescence can be used to measure the amount of free therapeutic and/or prophylactic agent (e.g., RNA) in solution. For the nanoparticle compositions described herein, the encapsulation efficiency of the therapeutic and/or prophylactic agent may be at least 50%, such as 50%, 55%, 60%, 65%, 70%, 75%, 80%, 85%, 90%, 91%, 92%, 93%, 94%, 95%, 96%, 97%, 98%, 99%, or 100%. In some embodiments, the encapsulation efficiency may be at least 80%. In certain embodiments, the encapsulation efficiency may be at least 90%.
as §1, §2

[5] = tested on: BALB/c mice; assay: In vivo organ imaging via tail vein injection; conditions: 0.25 mg/kg tail vein, 6 hours post-dose, FIG. 27
[6] = tested on: BALB/c mice; assay: In vivo imaging via intramuscular injection; conditions: 0.25 mg/kg intramuscular, 6 hours post-dose, FIG. 26
[7] = tested on: BALB/c mice; assay: In vivo distribution study via tail vein injection; conditions: 0.25 mg/kg tail vein, 6 hours post-dose

Row | Structure (SMILES) | injection site flux levels [1] | dose-response of Luc expression ([1]; mRNA doses 0.25, 0.05 and 0.01 mg/kg) | PDI [2] | Size (nm) [2] [nm] | Zeta potential (mV) [3] [mV] | Encapsulation efficiency (%) [4] [%] | liver expression levels (Radiance) [5] | spleen expression levels (Radiance) ([5]; spleen) | Radiance, intramuscular injection [6] | spleen-liver ratio versus commercial lipids [7] | liver expression levels ([7]; liver) [×1-2×10^9] | spleen expression levels ([7]; spleen) [×1-2×10^9]
1 | CCCCCCCCC(CCCCCCCC)OC(=O)CCCCCCC(=O)N(CCCN(C)C)C(CCCCCCCC)C(=O)NCCCCCC(=O)OCCC12CC3CC(CC(C3)C1)C2 (stereo not drawn) [Compound A47] | 0.3-3×10^10 p/s | clear dose-response gradient | 0.11 | 91.63 | −0.55 | 95.93 | – | – | – | – | – | –
2 | CCCCCCCCNC(=O)C(CCCCCCCC)N(CCCN(C)C)C(=O)CCCCCCC(=O)OC(CCCCCCCC)CCCCCCCC (stereo not drawn) [Compound A26] | 0.3-3×10^10 p/s | – | – | – | – | – | 8×10^8-1×10^9 p/sec/cm^2/sr | 6×10^8-8×10^8 p/sec/cm^2/sr | 5×10^8-1×10^9 p/sec/cm^2/sr | – | – | –
3 | CCCCCCCCNC(=O)C(CCCCCCCC)N(CC1CCCN(C)C1)C(=O)CCCCCCC(=O)OC(CCCCCCCC)CCCCCCCC (stereo not drawn) [Compound A39] | – | – | 0.10 | 78.16 | −3.35 | 92.88 | 8×10^8-1×10^9 p/sec/cm^2/sr | – | 5×10^8-1×10^9 p/sec/cm^2/sr | – | – | –
4 | CCCCCCCCNC(=O)C(CCCCCCCC)N(CCCCN(C)C)C(=O)CCCCCCC(=O)OC(CCCCCCCC)CCCCCCCC (stereo not drawn) [Compound A35] | – | – | – | – | – | – | 8×10^8-1×10^9 p/sec/cm^2/sr | – | 5×10^8-1×10^9 p/sec/cm^2/sr | – | – | –
5 | CCCCCCCCNC(=O)C(CCCCCCCC)N(CCN(C)CCO)C(=O)CCCCCCC(=O)OC(CCCCCCCC)CCCCCCCC (stereo not drawn) [Compound B31] | – | – | – | – | – | – | 8×10^8-1×10^9 p/sec/cm^2/sr | – | 5×10^8-1×10^9 p/sec/cm^2/sr | – | – | –
6 | CCCCCCCCC(CCCCCC)COC(=O)CCCCCNC(=O)C(CCCCC)N(CCCCN(C)C)C(=O)CCCCCC(=O)OCC(CCCCCC)CCCCCCCC (stereo not drawn) [Compound A44] | – | – | 0.20 | 102.07 | −3.58 | 24.84 | – | – | – | higher spleen-liver ratio | 1 | 1
